Like-named read-outs stand apart in the source and are kept apart here. These are yes or no findings as the source states them, for the method shown. For some assays here: In cells and extracts the contact can be indirect. Some entries that bind do so weakly or less than the wild type. For some assays here: Tags and fused reporters may be left off the sequences shown. Blank lines part the entries; values can stand above or below the molecule they belong to.
Key:
[1] = molecular target: T1, His-Suv39h1-1-114 (mouse) (UniProt O54864); test: far-Western, overlay or dot blot; lysates of E. coli expressing His-Suv39h1 full-length and truncation fragments resolved by SDS-PAGE, transferred to nitrocellulose, denatured/renatured and incubated with purified recombinant GST fusion protein; bound protein detected with anti-GST; only the binder purified
T1 sequence: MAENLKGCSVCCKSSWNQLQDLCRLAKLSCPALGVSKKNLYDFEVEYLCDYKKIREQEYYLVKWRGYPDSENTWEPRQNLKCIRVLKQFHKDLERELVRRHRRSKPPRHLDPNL

By UniProt entry, the sequences of proteins in these tests, tags left out. Residues count along the entry.
UniProt Q61686: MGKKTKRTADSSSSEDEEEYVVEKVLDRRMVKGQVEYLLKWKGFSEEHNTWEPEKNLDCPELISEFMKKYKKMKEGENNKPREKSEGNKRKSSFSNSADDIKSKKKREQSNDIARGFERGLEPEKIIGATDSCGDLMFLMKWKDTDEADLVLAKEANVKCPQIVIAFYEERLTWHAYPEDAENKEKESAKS
UniProt P63279: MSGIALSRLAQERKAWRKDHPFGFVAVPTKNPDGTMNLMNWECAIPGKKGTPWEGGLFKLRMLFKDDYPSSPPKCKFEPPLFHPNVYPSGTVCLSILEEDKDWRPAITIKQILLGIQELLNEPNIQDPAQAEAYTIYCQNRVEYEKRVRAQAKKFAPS
UniProt P63165, residues 1-97: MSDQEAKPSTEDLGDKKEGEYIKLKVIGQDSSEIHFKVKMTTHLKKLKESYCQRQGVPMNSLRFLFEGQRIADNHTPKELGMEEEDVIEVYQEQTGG

[2] = molecular target: T2, His-Suv39h1-1-167 (mouse) (UniProt O54864); test: as above
T2 sequence: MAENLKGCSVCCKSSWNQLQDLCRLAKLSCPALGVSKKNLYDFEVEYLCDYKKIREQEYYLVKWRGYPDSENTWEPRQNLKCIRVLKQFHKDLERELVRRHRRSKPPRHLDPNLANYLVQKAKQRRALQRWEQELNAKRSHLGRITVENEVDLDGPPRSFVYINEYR

[3] = molecular target: T3, TALE-Suv39h1-1-114-HA (mouse) (UniProt O54864); test: co-IP; anti-HA immunoprecipitation of TALE-Suv39h1-HA constructs from total cell extracts; endogenous HP1α detected
T3 sequence: T1 sequence

[4] = molecular target: T4, TALE-Suv39h1-1-167-HA (mouse) (UniProt O54864); test: as above
T4 sequence: T2 sequence

[5] = molecular target: T5, His-Suv39h1 full-length (WT) (mouse) (UniProt O54864); test: far-Western, overlay or dot blot; lysates of E. coli expressing His-Suv39h1 full-length and truncation fragments resolved by SDS-PAGE, transferred to nitrocellulose, denatured/renatured and incubated with purified recombinant GST fusion protein; bound protein detected with anti-GST; only the binder purified
T5 sequence: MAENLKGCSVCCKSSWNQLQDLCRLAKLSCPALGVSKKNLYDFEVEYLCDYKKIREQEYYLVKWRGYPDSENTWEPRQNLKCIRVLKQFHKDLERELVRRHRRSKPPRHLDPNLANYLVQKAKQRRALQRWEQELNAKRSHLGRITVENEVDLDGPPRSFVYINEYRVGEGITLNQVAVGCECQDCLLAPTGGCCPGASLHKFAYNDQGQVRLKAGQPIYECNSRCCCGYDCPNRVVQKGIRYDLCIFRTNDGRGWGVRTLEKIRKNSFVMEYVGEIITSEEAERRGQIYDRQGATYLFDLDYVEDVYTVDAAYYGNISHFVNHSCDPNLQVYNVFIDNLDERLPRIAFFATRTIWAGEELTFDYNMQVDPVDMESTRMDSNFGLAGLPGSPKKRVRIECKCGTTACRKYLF

[6] = molecular target: HP1α-HA (UniProt Q61686); test: co-IP; anti-HA agarose beads on total cell extracts of NIH3T3 cells transfected with HP1α-HA, GFP-SUMO-1 and Myc-Suv39h constructs; 2 h at 4 °C; lysis buffer with 150 mM NaCl, 1% Nonidet P-40, 0.75% sodium deoxycholate, 20 mM N-ethylmaleimide; western blot with anti-Myc
[7] = molecular target: T6, GST-Suv39h1-1-114 (mouse) (UniProt O54864); test: AlphaScreen or HTRF; saturation binding; fixed concentrations of GST-Suv39h1 truncated versions with variable His-HP1α; 2 h at room temperature; 20 mM Tris pH 7.5, 100 mM NaCl, 2 mM MgCl2, 1 mM DTT, 0.05% BSA, 0.1% Tween; Nickel-Chelate acceptor and Glutathione donor beads; both purified
T6 sequence: T1 sequence

[8] = molecular target: T7, GST-Suv39h1-1-167 (mouse) (UniProt O54864); test: as above
T7 sequence: T2 sequence

[9] = molecular target: GST-Ubc9 (UniProt P63279); test: pull-down; GST-Ubc9 on Glutathione Sepharose 4B mixed with total extract of NIH3T3 cells expressing Myc-Suv39h1; 2 h at 4 °C; 20 mM Tris-HCl pH 8, 200 mM NaCl, 2 mM EDTA, 0.5% Nonidet P-40; five washes; only the target purified
[10] = molecular target: HP1α-HA (UniProt Q61686); test: co-IP; anti-HA agarose beads on total cell extracts of NIH3T3 cells transfected with HP1α-HA, GFP-SUMO-1 and Myc-Suv39h constructs; 2 h at 4 °C; lysis buffer with 150 mM NaCl, 1% Nonidet P-40, 0.75% sodium deoxycholate, 20 mM N-ethylmaleimide; western blot with anti-Myc; remark: listed apart in the source

Molecule: GST-HP1α (from UniProt Q61686 1-191)
binding [1]: binds
binding [2]: binds

Molecule: GST-Ubc9 (from UniProt P63279 1-158) (enzyme)
binding [5]: binds
binding [1]: no binding
binding [2]: binds

B1: Myc-Suv39h1 full-length (protein, UniProt O54864 1-412)
chain: T5 sequence
binding [9]: binds
binding [10]: binds

B2: Myc-Suv39h1+h2N82 (protein, UniProt Q9EQQ0 1-82; O54864 1-412)
chain: MATARAKARGSEAGARCHRAPGPPPRPKARRTARRRRAETLTARRSRPSAGERRAGSQRAWSGAPRAAVFGDECARGALFKAMAENLKGCSVCCKSSWNQLQDLCRLAKLSCPALGVSKKNLYDFEVEYLCDYKKIREQEYYLVKWRGYPDSENTWEPRQNLKCIRVLKQFHKDLERELVRRHRRSKPPRHLDPNLANYLVQKAKQRRALQRWEQELNAKRSHLGRITVENEVDLDGPPRSFVYINEYRVGEGITLNQVAVGCECQDCLLAPTGGCCPGASLHKFAYNDQGQVRLKAGQPIYECNSRCCCGYDCPNRVVQKGIRYDLCIFRTNDGRGWGVRTLEKIRKNSFVMEYVGEIITSEEAERRGQIYDRQGATYLFDLDYVEDVYTVDAAYYGNISHFVNHSCDPNLQVYNVFIDNLDERLPRIAFFATRTIWAGEELTFDYNMQVDPVDMESTRMDSNFGLAGLPGSPKKRVRIECKCGTTACRKYLF
binding [10]: binds

Now from value to molecule:

binding [3]: binds
binding [4]: binds
Molecule: endogenous HP1α (from UniProt Q61686 1-191)

binding [6]: binds
Molecule: Myc-Suv39h2-ΔN82 (from UniProt Q9EQQ0 83-477) (domain or fragment)

binding [5]: binds
Molecule: GST-SUMO-1 (from UniProt P63165 1-97)

binding [7]: binds
binding [8]: binds
Molecule: His-HP1α (from UniProt Q61686 1-191)
